We go through 27 molecules from PubChem BioAssay AID1159614 (National Center for Advancing Translational Sciences (NCATS), 2016).

Screen size: about 45,000 compounds; about 65 (0.1%) were called active. The call rests on the fitted dose curve; in most records, active means well fitted activation curve with a large enough effect; inconclusive means small, poorly fitted or top-dose-only effect; inactive means no such curve, though single readings can be large or run the other way. The list shows a part of the results.

The assay addresses Galactocerebrosidase (Homo sapiens) (UniProt P54803). Kind of assay: A Novel Cell-Based Assay to Identify Small Molecules for B -Galactocerebrosidase. Further: 0% is about no effect; nearly all actives have a fitted effect of over 65% in size. The following applies: 145M-Twi-hGALC-G270D cells (Twitcher mouse brain line with human GALC G270D), HMU-beta-Gal fluorescence, 48 h; series mostly up to 57.5 µM; activation: at the top concentration. The method, boiled down: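 Fluorogenic HMU-b-Gal hydrolysis (0.1 mM final, pH 5.2 citrate-phosphate with 1 mg/mL sodium taurocholate; carbonate stop buffer) measures mutant GALC activity after compound treatment of live 145M-Twi Twitcher brain cells stably carrying human GALC-G270D, with wild-type GALC line alongside; activation sought.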
Sequence of UniProt P54803 (P54803 whole entry, looked up): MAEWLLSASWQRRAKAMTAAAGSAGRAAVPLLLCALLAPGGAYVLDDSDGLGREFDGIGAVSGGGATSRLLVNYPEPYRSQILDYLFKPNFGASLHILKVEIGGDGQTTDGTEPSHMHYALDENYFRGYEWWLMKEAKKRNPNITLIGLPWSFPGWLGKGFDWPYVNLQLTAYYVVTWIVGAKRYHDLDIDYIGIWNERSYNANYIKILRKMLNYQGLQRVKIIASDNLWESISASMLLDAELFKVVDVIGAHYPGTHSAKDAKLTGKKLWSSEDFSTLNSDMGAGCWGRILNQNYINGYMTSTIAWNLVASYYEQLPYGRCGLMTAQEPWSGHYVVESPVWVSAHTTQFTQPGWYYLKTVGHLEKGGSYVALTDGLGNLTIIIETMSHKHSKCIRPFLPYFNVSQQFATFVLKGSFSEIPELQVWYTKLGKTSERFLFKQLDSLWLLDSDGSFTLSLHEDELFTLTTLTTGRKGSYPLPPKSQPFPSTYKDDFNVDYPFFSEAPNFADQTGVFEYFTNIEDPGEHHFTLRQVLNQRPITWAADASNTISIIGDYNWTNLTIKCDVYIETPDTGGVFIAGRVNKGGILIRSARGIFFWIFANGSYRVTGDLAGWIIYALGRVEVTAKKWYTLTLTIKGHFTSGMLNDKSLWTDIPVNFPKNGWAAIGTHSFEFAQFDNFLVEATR
Consider `CCCNC(=O)c1c2c(nc3ccccc13)C(=O)N(C1CCCCC1)C2`, for which the “activation” value was inactive: -5.96%.
With `Cc1cccn2c(=O)c(/C=C(\C#N)c3nc4ccccc4n3C)c(Oc3ccc(Cl)cc3)nc12` the figure was inactive: -6.43%; with `CCCc1cc(=O)[nH]c2nnc(SCC(=O)Nc3cccc(C)c3)n12`, inactive: -33.8%.
With `CCOc1cc(-c2nnc(SCC(=O)NCc3ccc(C)cc3)nc2-c2ccc(OC)c(OCC)c2)ccc1OC` the figure was inactive: -3.44%.
Under `CC1C(=O)N2CCCc3cc(S(=O)(=O)Nc4ccc(Br)cc4F)cc1c32` (configuration not stated) stands inactive: -5.55%; under `COc1ccc(OC)c(NC(=O)c2nc(SCc3ccccc3F)ncc2Cl)c1`, inactive: 6.79%.
Take `COc1cccc(NC(=O)C2CCCN2S(=O)(=O)c2ccc3c(c2)n(C)c(=O)c(=O)n3C)c1` (configuration not stated): the “activation” value is inactive: 1.11%.
With `O=C(Cn1c(=O)oc2cc(S(=O)(=O)NCc3ccccc3)ccc21)N(CCO)Cc1ccccc1` the figure was inactive: 3.21%; with `CCC1CN(C(=O)Nc2cc(OC)cc(OC)c2)c2ccccc2S1` (configuration not stated), inactive: -5.8%; with `Cc1ccc2oc(C(=O)Nc3sc4c(c3C(=O)NCc3ccccc3)CCCC4)cc(=O)c2c1`, inactive: -5.82%.
Under `CCOc1ccc(NC(=O)c2ccc3nc(Cc4ccccc4)oc3c2)cc1` stands inactive: -10.4%.
Consider `CCc1cccc(-n2c(=O)c3cccnc3n2CC(=O)Nc2ccccc2C(=O)OC)c1`, for which the “activation” value was inactive: -33.6%.
With `N#CC1=C2SCN(C3CCCCC3)CN2C(=O)CC1c1ccc(F)cc1` (configuration not stated) the figure was inactive: -14.5%; with `CCC(=O)N1CCc2cc(S(=O)(=O)NC(Cc3ccccc3)C(=O)NCc3ccc(F)cc3)ccc21` (configuration not stated), inactive: -13.6%.
Under `Nc1ccc(C(=O)OCC(O)CO)cc1` (configuration not stated) stands inactive: -10%; under `Cc1ccc(OCC(=O)OCc2cc(=O)n3c(C)csc3n2)cc1`, inactive: -4.88%; under `Cc1ccccc1NC(=O)N1CCC(CN2CCCC2)CC1`, inactive: -8.89%.
Under `COc1ccc(-n2nc3cc(C)c(NC(=O)c4ccc(C)cc4C)cc3n2)cc1Cl` stands inactive: -18.6%; under `CCc1ccccc1NC(=O)CN1C(=O)COc2ccc(S(=O)(=O)N3CCCCCC3)cc21`, inactive: -1.93%; under `CCN(CC)S(=O)(=O)c1ccc2c(c1)N(CC(=O)NCC(C)c1ccccc1)C(=O)CO2` (configuration not stated), inactive: -10.7%.
In the case of `COc1ccccc1CNC(=O)c1ccc2c(c1)N(Cc1ccc(C)cc1)CCS2`, the “activation” value was inactive: -18.5%.
Under `CCn1cc(C(=O)N2CCN(c3ccccc3OC)CC2)c(=O)c2cc(S(=O)(=O)N3CCC(C)CC3)ccc21` stands inactive: -9.13%; under `Cc1ccc(-n2ncc3c(N4CCCCCC4)ncnc32)cc1C`, inactive: -13.9%.
Under `CNS(=O)(=O)c1cn(CC(=O)N2CCN(c3cccc(Cl)c3)CC2)cc1S(=O)(=O)NC` stands inactive: 1.56%; under `CC(=O)Oc1cccc(C)c1`, inactive: -16.1%; under `CC(C)Oc1ccc(CNC(=O)c2ccccc2NC(=O)c2nsc3ccccc23)cc1`, inactive: -14.6%.
With `COC(=O)c1ccc(CN(Cc2ccc(OC)c(OC)c2)S(=O)(=O)c2cc(C(=O)Nc3cccc(C)c3)ccc2F)cc1` the figure was inactive: -7.14%.
